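Dose response: 5 concentrations. Exposure: 48 h. Format: 96-well plates. Endpoint: linear interpolation; highest concentration if not reached. GI50 is the concentration that inhibits growth by half.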 A number of entries come with more than one value. Only these are listed. The source may hold further records. For some of these results: A record mostly stands for its own series of concentrations, which the source does not state; some values may only mark the edge of a range.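 At the TGI there is no net growth.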 For some of these results: The values listed for one entry are repeated measurements (runs, samples, wells, individuals or studies). Brackets tell where a record comes from. A, B and so on number the origins entry by entry.
What was measured:
Assay in all cases: NCI tumour cell line growth inhibition, 48 h
KM12 colon = system: KM12 colon
OVCAR-8 ovarian = system: OVCAR-8 ovarian
EKVX NSCLC = system: EKVX NSCLC
HCT-15 colon = system: HCT-15 colon
U251 CNS = system: U251 CNS
SK-MEL-2 melanoma = system: SK-MEL-2 melanoma
NCI-H23 lung = system: NCI-H23 lung
M14 melanoma = system: M14 melanoma
MDA-MB-435 = system: MDA-MB-435
PC-3 prostate = system: PC-3 prostate
SR leukemia = system: SR leukemia
SK-MEL-5 melanoma = system: SK-MEL-5 melanoma
HS 578T breast = system: HS 578T breast
IGROV1 ovarian = system: IGROV1 ovarian
SF-268 CNS = system: SF-268 CNS
BT-549 breast = system: BT-549 breast
RPMI-8226 leukemia = system: RPMI-8226 leukemia
MALME-3M melanoma = system: MALME-3M melanoma
SF-539 CNS = system: SF-539 CNS
COLO 205 colon = system: COLO 205 colon
OVCAR-3 ovarian = system: OVCAR-3 ovarian
NCI-H522 lung = system: NCI-H522 lung
HL-60(TB) leukemia = system: HL-60(TB) leukemia
SF-295 CNS = system: SF-295 CNS
SK-OV-3 ovarian = system: SK-OV-3 ovarian
HCT-116 colon = system: HCT-116 colon
HT29 colon = system: HT29 colon
NCI-H226 lung = system: NCI-H226 lung
SK-MEL-28 melanoma = system: SK-MEL-28 melanoma
MDA-MB-231 breast = system: MDA-MB-231 breast
A498 renal = system: A498 renal
HOP-92 NSCLC = system: HOP-92 NSCLC
SN12C renal = system: SN12C renal
NCI-H460 lung = system: NCI-H460 lung
T-47D breast = system: T-47D breast
786-0 renal = system: 786-0 renal
HCC-2998 colon = system: HCC-2998 colon
OVCAR-5 ovarian = system: OVCAR-5 ovarian
ACHN renal = system: ACHN renal
LOX IMVI melanoma = system: LOX IMVI melanoma
A549 NSCLC = system: A549 NSCLC
MOLT-4 leukemia = system: MOLT-4 leukemia
CCRF-CEM leukemia = system: CCRF-CEM leukemia
SW-620 colon = system: SW-620 colon

## COc1cc2c(c(OC)c1OC)-c1ccc(SC)c(=O)cc1[C@@H](O)CC2
KM12 colon
  TGI: 17.2 nM and > 100 µM
OVCAR-8 ovarian
  TGI: 224 nM and > 100 µM
EKVX NSCLC
  TGI: < 101 nM and > 100 µM
HCT-15 colon
  TGI: 523 nM and > 100 µM
U251 CNS
  TGI: 117 nM and > 100 µM
SK-MEL-2 melanoma
  TGI: 67.9 nM and > 100 µM
NCI-H23 lung
  TGI: 29.8 nM and > 100 µM
M14 melanoma
  TGI: 586 nM and > 100 µM
MDA-MB-435
  TGI: 0.506 nM and > 100 µM
PC-3 prostate
  TGI: 232 nM and > 100 µM
SR leukemia
  TGI: 16.2 nM and > 100 µM
SK-MEL-5 melanoma
  TGI: 10.9 nM and > 100 µM
HS 578T breast
  TGI: 224 nM and > 100 µM
IGROV1 ovarian
  TGI: 119 nM and > 100 µM
SF-268 CNS
  TGI: 130 nM and > 100 µM
BT-549 breast
  TGI: 549 nM and > 100 µM
RPMI-8226 leukemia
  GI50: 60.2 nM [1 test] and 1.06 nM [mean of 2 tests]
MALME-3M melanoma
  TGI: 0.92 nM and > 100 µM
SF-539 CNS
  TGI: 51.4 nM and > 100 µM
COLO 205 colon
  TGI: 8.34 nM and > 100 µM
OVCAR-3 ovarian
  TGI: > 100 µM [1 test] and 21.2 nM [mean of 2 tests]
NCI-H522 lung
  TGI: 23.9 nM and > 100 µM
HL-60(TB) leukemia
  TGI: 0.767 nM and 43 µM
SF-295 CNS
  TGI: 6.7 nM and > 100 µM
SK-OV-3 ovarian
  TGI: 25.2 nM and > 100 µM

## CC(=O)c1cc(C(=O)c2ccc3c(c2)Sc2ccccc2N3)n2ccccc12
HCT-116 colon
  TGI: 282 nM and 5.49 µM
HT29 colon
  TGI: 335 nM and 3.45 µM
NCI-H226 lung
  GI50: 87.3 nM and 931 nM
SK-MEL-28 melanoma
  GI50: 24.2 nM and 502 nM
MDA-MB-231 breast
  TGI: 432 nM and > 33.2 µM
SF-268 CNS
  GI50: 7.26 nM and 488 nM
A498 renal
  TGI: 518 nM and 7.38 µM
HOP-92 NSCLC
  GI50: 130 nM and 3.32 nM
SN12C renal
  GI50: 8.44 nM and 1.2 µM
NCI-H460 lung
  TGI: 157 nM and > 33.2 µM

## O=[N+]([O-])c1cc([N+](=O)[O-])c(Nn2c3ccccc3c3ccccc32)c([N+](=O)[O-])c1
OVCAR-8 ovarian
  TGI: > 100 µM [sample A] and 9.91 µM [sample B]
M14 melanoma
  TGI: 2.98 µM [sample A] and > 100 µM [sample B]
T-47D breast
  TGI: > 100 µM [sample A] and 6.89 µM [sample B]
HS 578T breast
  TGI: > 100 µM [sample A] and 8.47 µM [sample B]
COLO 205 colon
  TGI: 382 nM [sample A] and 13.1 µM [sample B]
HL-60(TB) leukemia
  TGI: 511 nM [sample A] and > 100 µM [sample B]

## COc1cc(C(=O)c2cnc(-c3cccc4[nH]ccc34)[nH]2)cc(OC)c1OC
786-0 renal
  GI50: 134 nM and < 10 nM
OVCAR-8 ovarian
  GI50: 159 nM and < 10 nM
EKVX NSCLC
  GI50: 198 nM and < 10 nM
HCC-2998 colon
  GI50: 189 nM and < 10 nM
MDA-MB-231 breast
  GI50: 163 nM and < 10 nM
OVCAR-5 ovarian
  GI50: 444 nM and < 10 nM
ACHN renal
  GI50: 392 nM and < 10 nM
NCI-H23 lung
  GI50: 180 nM and < 10 nM
M14 melanoma
  TGI: 951 nM and > 100 µM
HS 578T breast
  GI50: 480 nM and < 10 nM
SF-268 CNS
  GI50: 158 nM and < 10 nM
LOX IMVI melanoma
  GI50: 350 nM and < 10 nM
A498 renal
  TGI: 965 nM and 29.5 µM
A549 NSCLC
  GI50: 139 nM and < 10 nM
BT-549 breast
  GI50: 186 nM and < 10 nM
MOLT-4 leukemia
  GI50: 300 nM and < 10 nM
RPMI-8226 leukemia
  GI50: 447 nM and < 10 nM
SF-539 CNS
  TGI: 106 nM and < 10 nM
CCRF-CEM leukemia
  GI50: 234 nM and < 10 nM
COLO 205 colon
  GI50: 134 nM and < 10 nM
SN12C renal
  GI50: 135 nM and < 10 nM
OVCAR-3 ovarian
  TGI: 212 nM and < 10 nM
SW-620 colon
  GI50: 143 nM and < 10 nM

Reference: PubChem BioAssay (NCI)
